The data set deals with ATP. Nature of the data set: switch fluorescence ratio, 500 uM ATP over buffer (Cy3 cluster intensity, sum of 5 cycles each) (fold (ratio)); higher = stronger signal-on switching upon ATP binding; sequences stand for … in TCGTCGGCAGCGTCAGATGTGTATAAGAGACAGTTTTTTTTTTTTTTTTTTTTTTTTT…TC. The note with it: aptamer strand: ATP DNA aptamer (quencher-CACCTGGGGGAGTATTGCGGAGGAAGG + anchor), 100 nM annealed; ATP concentration: 500 uM; one replicate. In outline:
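Switching-strand clusters labelled with Cy3 on a modified Illumina MiSeq flow-cell were annealed to 100 nM quencher-labelled ATP aptamer, imaged in selection buffer, and re-imaged after 15 min with 500 uM ATP at 22 °C. This was done over five cycles with NaOH stripping and re-annealing in between. The fluorescence ratio is summed target-cycle over summed buffer-cycle Cy3 intensity per cluster, averaged per switch-domain sequence, excluding clusters outside 100-1000 RFU.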

Values marked as one replicate rest on one cluster of the flow cell; about a third of the high ones do not repeat.
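Note: ATP exposure 15 min at 22 °C before imaging.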

Regarding AGCAGTCGTC, the switch fluorescence ratio came to 1.06.

As for TCTGGGGGG, the switch fluorescence ratio turned out to be 1.02.

As to CGCATTATGG, the switch fluorescence ratio turned out to be 1.52.

As for TGCTTGTTGT, the switch fluorescence ratio was 0.991.

With ACGGGCTCC, the switch fluorescence ratio amounted to 1.04.

With GATGAGAAGA, the switch fluorescence ratio was found to be 1.03.

On to CTATCTGATA, for which the switch fluorescence ratio stood at 0.957.

Take ATCCAATGCG: the switch fluorescence ratio came out at 0.976.

In the case of CGGCATCTTA, the switch fluorescence ratio was 1.01.

Consider GCAGTAAACG, for which the switch fluorescence ratio came out at 1.06.

As to CACACAAGGC, the switch fluorescence ratio stood at 1.18.

Regarding CCGTCGGGCC, the switch fluorescence ratio was found to be 1.1.

For CGCGACTGTG, the switch fluorescence ratio turned out to be 0.986.

CTTGACCTAC: the switch fluorescence ratio amounted to 1.27.

As for GTTGTAACCG, the switch fluorescence ratio amounted to 0.986.

Turning to TGCATTGGTC, the switch fluorescence ratio came out at 1.06.

For the sequence CGCGGTCTAT, the switch fluorescence ratio worked out at 1.1.

With GTATTGGACT, the switch fluorescence ratio was 0.948.

In the case of TGCCTGTGTC, the switch fluorescence ratio was 0.924.

Regarding AACAATTGAT, the switch fluorescence ratio was 0.977.

TCACCCGGGT: the switch fluorescence ratio was determined as 1.02.

For the sequence TGGTAGTGTT, the switch fluorescence ratio worked out at 1.01.

On to GTTTCGGGCC, for which the switch fluorescence ratio is 0.894.

With TAGCGCCACA, the switch fluorescence ratio worked out at 0.998.

For the sequence CCAAATTATG, the switch fluorescence ratio was 1.02.

Regarding AGGTCTTCGT, the switch fluorescence ratio worked out at 0.989.

Turning to AGGACGGGTC, the switch fluorescence ratio was 0.952.

For the sequence GCTACCTTGT, the switch fluorescence ratio worked out at 1.01.

As for ATACAAGGT, the switch fluorescence ratio came to 1.08.

Consider TTACATATA, for which the switch fluorescence ratio is 1.05.

As to CACTTCAGGG, the switch fluorescence ratio turned out to be 1.01.

As for CCAGCGTAT, the switch fluorescence ratio was 1.12.

For the sequence GAGCATAAAG, the switch fluorescence ratio was 1.

As for TGTTCTCTAA, the switch fluorescence ratio is 0.968.

Consider TAAGGTCCCG, for which the switch fluorescence ratio is 1.

As for AGACTGTGAT, the switch fluorescence ratio was determined as 1.04.

On to CGTACGGCTA, for which the switch fluorescence ratio is 1.08.

For TCCTATCTAA, the switch fluorescence ratio came out at 1.04.

GGACGTATTC: the switch fluorescence ratio came to 1.07.

On to AAGGCCGACT, for which the switch fluorescence ratio was determined as 1.01.

As for ATTCAATACG, the switch fluorescence ratio came out at 1.19.

In the case of ACCTTTATTG, the switch fluorescence ratio came out at 1.02.

As to TTCATTTAAA, the switch fluorescence ratio is 0.979.

On to TCGACCAGC, for which the switch fluorescence ratio was determined as 1.21.

Regarding AAATGCATGG, the switch fluorescence ratio is 0.976.

With ACGTAGGGAG, the switch fluorescence ratio turned out to be 1.07.

With GCGATTGCGA, the switch fluorescence ratio was 0.964.

Turning to TGATAGAGTT, the switch fluorescence ratio was found to be 0.999.

For ATTGACGAAC, the switch fluorescence ratio worked out at 1.41.

In the case of CGAAGATCAG, the switch fluorescence ratio is 0.971.

Turning to GCTAATCCGT, the switch fluorescence ratio is 0.997.

Regarding ACCATAGGTT, the switch fluorescence ratio is 0.99.

For TCCCAATCGA, the switch fluorescence ratio is 1.28.

As to ATAAGCTAGA, the switch fluorescence ratio was found to be 1.01.

With CCGGGGAATT, the switch fluorescence ratio is 1.11.

As for GCGATCGGT, the switch fluorescence ratio is 0.988.

Turning to GCTATTGCAA, the switch fluorescence ratio was found to be 1.04.

Take TTAAGATTAG: the switch fluorescence ratio came to 0.996.

Take GACGCTTAGT: the switch fluorescence ratio amounted to 1.11.

Turning to GCTTGGATAC, the switch fluorescence ratio came to 1.12.

As for ATCGGCCGAT, the switch fluorescence ratio worked out at 0.916.

With GTGGCCGAAG, the switch fluorescence ratio worked out at 0.985.

Turning to AGGGCCTCTG, the switch fluorescence ratio turned out to be 1.04.

As to GCTCATAGTT, the switch fluorescence ratio came out at 0.988.

For the sequence CCTCATCTGT, the switch fluorescence ratio came out at 1.09.

CGCGTGTCGG: the switch fluorescence ratio was determined as 1.01.

With CTTGTACGGG, the switch fluorescence ratio is 1.

On to ATGTTGCGTC, for which the switch fluorescence ratio was determined as 1.11.

On to TAAATGG, for which the switch fluorescence ratio stood at 1.06.

Consider TGGGATGCGG, for which the switch fluorescence ratio came out at 1.05.

As to CTTCTCGGCC, the switch fluorescence ratio amounted to 1.14.

As to GGCATCAATG, the switch fluorescence ratio was found to be 1.01.

As to CCAAAAGAAG, the switch fluorescence ratio came to 1.02.

For the sequence GAGGTGTGTC, the switch fluorescence ratio is 0.955.

Consider CATGTCGGTC, for which the switch fluorescence ratio was found to be 1.05.

Consider TATGAAAGAC, for which the switch fluorescence ratio was determined as 1.08.

As to TAGCCAGGTA, the switch fluorescence ratio stood at 1.02.

Consider GTGGTCCTTA, for which the switch fluorescence ratio was 0.976.

Consider CCCTTCGGAA, for which the switch fluorescence ratio was 1.58.

Take TACTGTGGGC: the switch fluorescence ratio stood at 1.02.

Turning to TGCGCTGATA, the switch fluorescence ratio stood at 1.01.

Regarding GAGGTGTCCT, the switch fluorescence ratio came to 0.997.

For CCATGGAGCC, the switch fluorescence ratio stood at 1.03.

TTAAGATGG: the switch fluorescence ratio is 1.02.

With GGATATGCTA, the switch fluorescence ratio is 1.04.

AGGGTCTTTG: the switch fluorescence ratio was determined as 0.989.

In the case of AGGCGTCATT, the switch fluorescence ratio was 1.01.

TCCAAAGTCT: the switch fluorescence ratio was 1.07.

As to ACAGCGGCAC, the switch fluorescence ratio is 1.23.

As for AGTTGGAAAT, the switch fluorescence ratio turned out to be 0.99.

As to GGAAAATGTT, the switch fluorescence ratio is 1.

Turning to ACCTGGGTGC, the switch fluorescence ratio came to 2.28.

As for AGTGGTCGTC, the switch fluorescence ratio was 1.02.

In the case of ATCATGATCT, the switch fluorescence ratio was 1.23.

Consider CGGAGTCGT, for which the switch fluorescence ratio came out at 1.14.

Consider GCCCCGGTAT, for which the switch fluorescence ratio worked out at 1.01.

On to ACCTTAAAAG, for which the switch fluorescence ratio was found to be 1.

For GGAGGTTCTG, the switch fluorescence ratio turned out to be 0.995.

Regarding TTAGGATGAG, the switch fluorescence ratio was 0.987.

For the sequence TTGATATGTC, the switch fluorescence ratio turned out to be 1.

For TGCCATCAGT, the switch fluorescence ratio was 0.98.

Regarding TGCACTAACA, the switch fluorescence ratio came to 1.21.

Consider TTTATCTATA, for which the switch fluorescence ratio was 1.

With TTGGCTTCCG, the switch fluorescence ratio stood at 1.08.

In the case of TCTGTGGCGC, the switch fluorescence ratio turned out to be 0.981.

On to GTATTTAGTA, for which the switch fluorescence ratio stood at 0.984.

Consider GCCGCCGTGC, for which the switch fluorescence ratio was determined as 1.11.

On to CACATGGACT, for which the switch fluorescence ratio was determined as 1.04.

Take TAAAGAACGA: the switch fluorescence ratio was 1.

Regarding ATCGGCTCGT, the switch fluorescence ratio was 1.01.

For CTGTGTTCAT, the switch fluorescence ratio turned out to be 1.04.

TCCATGTTCG: the switch fluorescence ratio worked out at 0.92.

Regarding ACTGCATTGA, the switch fluorescence ratio worked out at 1.08.

As for AAGGGTCGAG, the switch fluorescence ratio stood at 0.994.

As for TAGTGGCGGC, the switch fluorescence ratio turned out to be 0.998.

Take CATGCGCCGG: the switch fluorescence ratio is 1.04.

TTAAAAGGAC: the switch fluorescence ratio came to 1.07.

Take TCCGGGTCGA: the switch fluorescence ratio turned out to be 1.03.

Take ACAGCTTGCG: the switch fluorescence ratio is 1.09.

Consider AGTTAAGAA, for which the switch fluorescence ratio amounted to 0.975.

Values taken from the supplement of paper PMC10126150.
